In PubChem BioAssay AID1963576 (National Center for Advancing Translational Sciences (NCATS), 2024):
Hit rate of the full screen: of about 46,000 compounds, about 60 (0.1%) were called active. Inconclusive results (about 3%) are left out. Calls come from the whole dose curve; as a rule, active = well fitted inhibition curve with a large enough effect; inconclusive = small, poorly fitted or top-dose-only effect; inactive = no such curve, though single readings can be large or run the other way. Some of the results follow.

assay: Primary qHTS assay for Inhibitors of ovarian cancer metastasis using an organotypic tumor microenvironment (TME) model.; note: nearly all actives have a fitted effect of over 65% in size;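 for activity change, negative = inhibition: plate controls were DMSO wells for no effect and tomatine positive control wells for full effect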; conditions: SKOV3ip1-GFP adhesion/invasion on 3D omental model, fluorescence; series mostly up to 45.8 µM; activity change, negative = inhibition: at the top concentration
How it was run: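 Adhesion/invasion was scored as fixed GFP-labeled SKOV3ip1 cell counts (488/509 nm), normalized to DMSO and tomatine controls. Cancer cells in serum-free medium, with four compound doses (0.36-46 umol/L), sat 2 hr at RT then 16 hr at 37 C on a 48 hr fibroblast/mesothelial/ECM culture.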

Row | Structure (SMILES) | activity change, negative = inhibition | outcome
1 | CSc1ccc(C(c2c(O)c3ccccc3oc2=O)c2c(C)n(C)n(-c3ccccc3)c2=O)cc1 (stereo not drawn) | inactive: 7.08% | 
2 | CN1CCN(c2csc3ccc(F)cc3c2=O)CC1 | inactive: 0.449% | 
3 | CN(C)CCc1ccc(O)cc1 | inactive: 1.76% | 
4 | O=C(c1ccc2c(c1)N(Cc1ccc(F)cc1Cl)C(=O)c1ccccc1S2)N1CCC2(CC1)OCCO2 | inactive: 4% | 
5 | Cc1ccc(NC(=O)CN2C(=O)CN=C(c3ccccc3)c3ccccc32)c(C)c1 | inactive: -5.06% | 
6 | Nc1c(C(=O)Nc2ccc(OC(F)(F)F)cc2)sc2nc3c(cc12)N1CCC3CC1 | inactive: -3.31% | 
7 | COc1cc(/C=C/c2nc3ccccc3c(=O)n2-c2ccc(Br)c(C)c2)ccc1O |  | inactive
8 | CCCCc1nc2ccccc2c(=O)n1-c1cccc(OC)c1 | inactive: 0.106% | 
9 | COc1ccccc1-n1c(/C=C/c2ccccc2)nc2ccccc2c1=O |  | inactive
10 | Cn1c(CCCC(=O)O)nc2cc(N(CCCl)CCCl)ccc21 | inactive: -18.8% | 
11 | COc1ccc(-c2nc(CN3C(=O)CN=C(c4ccccc4)c4ccccc43)c(C)o2)cc1OC | inactive: -5.84% | 
12 | CCc1ccc(OCC(=O)N2CCN(CCc3ccccn3)CC2)cc1 | inactive: -3.79% | 
13 | C[C@@H]1[C@@H](CC(C[C@H]2O[C@@H]3O[C@]4(C)CC[C@@H]5[C@H](C)CC[C@@H]([C@H]2C)[C@@]35OO4)C[S+](=O)([O-])c2ccc(COC(=O)N(C)C)cc2)O[C@@H]2O[C@]3(C)CC[C@H]4[C@H](C)CC[C@@H]1[C@@]24OO3 (stereo partly drawn) | inactive: -4.82% | 
14 | Cc1oc(-c2ccc(Cl)cc2)nc1CN1C(=O)CN=C(c2ccccc2)c2cc(Cl)ccc21 | inactive: -5.47% | 
15 | CN1CCN(C(=O)O[C@H]2c3nccnc3C(=O)N2c2ccc(Cl)cn2)CC1 | inactive: 16.5% | 
16 | O=C(N[C@@H](COc1ccc2[nH]c(=O)[nH]c2c1)c1ccccc1)c1cccn(Cc2ccc(F)c(F)c2)c1=O | inactive: -7.41% | 
17 | O=C1CC[C@@]2(O)[C@H]3Cc4ccc(O)c5c4[C@@]2(CCN3CC2CC2)[C@H]1O5 | inactive: -13.6% | 
18 | C[C@@]12OC(=O)[C@]1([C@@H](O)[C@@H]1C=CCCC1)NC(=O)[C@H]2CCCl | inactive: -22.6% | 
19 | COc1ccc(-c2nn3c(=O)cc(CN4CCN(C(=O)COc5ccc(F)cc5)CC4)nc3s2)cc1 | inactive: -2.34% | 
20 | O=C(Nc1ccc2c(c1)OCO2)c1cccn(Cc2ccc(F)cc2)c1=O | inactive: -6.11% | 
21 | O=c1cccc2n1CC1CNC[C@H]2C1 | inactive: 3.49% | 
22 | CC(NC(C)(C)C)C(=O)c1cccc(Cl)c1 (stereo not drawn) | inactive: 9.64% | 
23 | CCOc1ccc2nc(NC(=O)c3cccn(Cc4ccccc4C)c3=O)sc2c1 | inactive: 8.72% | 
24 | CCC(=O)N1CC(=O)Nc2ccc(C)cc2C1c1ccc(F)cc1 (stereo not drawn) | inactive: -3.03% | 

Row | Structure (SMILES) | activity change, negative = inhibition | outcome
25 | Cc1cc(NC(=O)c2cccn(Cc3cccc([N+](=O)[O-])c3)c2=O)no1 | inactive: 16.3% | 
26 | CN(C)[C@@H]1C(=O)C(C(N)=O)=C(O)[C@@]2(O)C(=O)C3=C(O)c4c(O)cccc4[C@@](C)(O)[C@H]3C[C@@H]12 | inactive: -4.41% | 
27 | Cc1ccccc1Cn1cccc(C(=O)Nc2cc(Cl)ccc2C#N)c1=O |  | inactive
28 | Cn1c(=O)n(C)c2cc(CNCCc3ccccc3)ccc21 | inactive: 0.943% | 
29 | Cc1cccc(CN2C(=O)CN=C(c3ccccc3)c3cc(Cl)ccc32)c1 |  | inactive
30 | O=C(O)C(=O)c1cn(Cc2ccccc2)c2ccc(-c3ccc(OC(F)(F)F)cc3)cc12 | inactive: -4.72% | 
31 | CCCc1ccc(OCC(=O)Nc2ccc(Cl)cc2C(=O)c2ccccc2)cc1 |  | inactive
32 | COc1ccc(-c2nc(CN3C(=O)CN=C(c4ccccc4Cl)c4cc(Cl)ccc43)c(C)o2)cc1OC | inactive: 1.43% | 
33 | C[C@](O)(CS(=O)(=O)c1ccc(F)cc1)C(=O)Nc1ccc(C#N)c(C(F)(F)F)c1 | inactive: -12.4% | 
34 | O=C(Cn1cc(C(=O)c2ccccc2)c2ccccc21)Nc1ccc(Br)cc1 | inactive: -7.62% | 
35 | COc1ccc(OCC(=O)N2CCN(CCc3ccccn3)CC2)cc1 | inactive: 4.33% | 
36 | CC(C)c1ccc(NC(=O)CN2C(=O)CN=C(c3ccccc3)c3ccccc32)cc1 | inactive: -3.99% | 
37 | CCC(C(=O)Nc1ccccc1F)N1C(=O)CN=C(c2ccccc2)c2ccccc21 (stereo not drawn) |  | inactive
38 | CCc1ccc(-n2nc(C)c3c2NC(=O)CSC3c2ccc(OC)cc2OC)cc1 (stereo not drawn) | inactive: 1.11% | 
39 | COc1ccc(Cl)cc1NC(=O)c1sc2nc3c(cc2c1N)N1CCC3CC1 | inactive: -21.5% | 
40 | CCNC(=O)CC1N=C(c2ccc(Cl)cc2)c2cc(OC)ccc2-n2c(C)nnc21 (stereo not drawn) | inactive: 9.81% | 
41 | N#Cc1ccccc1NC(=O)c1cccn(Cc2ccccc2)c1=O | inactive: 2.87% | 
42 | C[C@]12CC[C@@H]3c4ccc(OC(=O)N(CCCl)CCCl)cc4CC[C@H]3[C@@H]1CC[C@@H]2OP(=O)(O)O | inactive: 3.73% | 
43 | O=C(NCC1CCOCC1)c1cnc(Nc2ccc(Cl)cc2Cl)nc1C(F)(F)F | inactive: 21% | 
44 | Cc1ccc(-n2c(/C=C/c3ccccc3)nc3ccccc3c2=O)cc1Cl | inactive: 8.2% | 
45 | O=C1CC(c2ccccc2Br)c2c(c3ccccc3oc2=O)O1 (stereo not drawn) | inactive: 1.05% | 
46 | Cn1cc(C2=C(c3cn(C4CCN(Cc5ccccn5)CC4)c4ccccc34)C(=O)NC2=O)c2ccccc21 | inactive: 1.83% | 
47 | Cn1c(=O)n(C)c2cc(CNCCc3ccccc3F)ccc21 | inactive: 0.897% | 
48 | CC1(N2CCC(n3c([C@@H]4CCCNC4)nc4ccccc43)CC2)CCCCCCC1 | inactive: 6.06% | 
